Assay results reported in PubChem BioAssay AID686979 (National Center for Advancing Translational Sciences (NCATS), 2013).
About 50,000 (12%) of roughly 420,000 compounds were called active. This list was built around the results that the source calls inconclusive (neither active nor inactive); the mix of calls is not that of the screen. The call rests on the fitted dose curve; in most records, active means well fitted inhibition curve with a large enough effect; inconclusive means small, poorly fitted or top-dose-only effect; inactive means flat fitted curve, though single readings scatter. Potencies of inconclusive entries are left out as doubtful fits.

Assay: qHTS for Inhibitors of human tyrosyl-DNA phosphodiesterase 1 (TDP1): qHTS in cells in presence of CPT; further: nearly all actives have a fitted effect of over 55% in size
Settings: chicken DT40 Tdp1-/-;hTDP1 cells + 20 nM CPT, ATP luminescence, 48 h; activity change, negative = growth inhibition: at 46.2 µM (top of the series) unless noted
Method in brief: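 Cell growth measured by CellTiter-Glo luminescence after a minimum 48 h, 37 C compound exposure with 20 nM CPT in Tdp1-knockout DT40 cells stably expressing hTDP1, seeded 400/well; qHTS titration format.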
On the % scale 0 is the no-effect control and ±100 the full control effect; potency means the concentration at half of the fitted maximal effect; tags describe the fitted curve by direction and shape.

Structure (SMILES) | activity change, negative = growth inhibition | Potency
CCc1ccccc1NC(=O)CCN1C(=O)C2CC=CCC2C1=O (stereo not given) | inactive: -4.54% | 
CCc1cccc(NC(=O)CNS(=O)(=O)c2ccc3nc(C)sc3c2)c1 | inactive: -5.92% | 
COC(=O)c1cccc(CSc2nnc(C)s2)c1 | inactive: -12% | 
Cc1cn(C)c(CC(=O)NCc2ccc(F)cc2)c1C(=O)O | inactive: 3.57% | 
Cc1cc(C)cc(NC(=O)CN2C(=O)COc3ccc(S(=O)(=O)Nc4ccccc4)cc32)c1 | inactive: -24.1% | 
Cc1cc(N2CCN(C(C(=O)NC3CCCC3)C(C)(C)C)CC2)c2ccccc2n1 (stereo not given) |  | inconclusive [inhibitor, single point]
O=C(Nc1cccc(-c2cccc(F)c2)c1)C1CCN(CC2CCOC2)CC1 (stereo not given) |  | inconclusive [inhibitor, partial curve, poor fit]
CC1(C)CC(=O)C=C(c2ccc3[nH]ccc3c2)C1 |  | inconclusive [inhibitor, single point]
CCOC(=O)c1cnc2ccccc2c1Nc1ccc2c(c1)OCCO2 |  | inconclusive [inhibitor, single point]
C=CCn1c(=N)c(S(=O)(=O)c2ccc(C)c(C)c2)cc2c(=O)n3ccccc3nc21 |  | inconclusive [inhibitor, single point]
O=C(NCCc1ccccc1F)C1CCCN1S(=O)(=O)c1ccc2ccccc2c1 (stereo not given) |  | inconclusive [inhibitor, single point]
OCCNCCOCCOc1ccccc1-c1ccccc1 |  | inconclusive [inhibitor, single point]
COc1cccc(CNc2nc3cc(-c4cccc(OC)c4)sc3c(=O)n2C)c1 |  | inconclusive [inhibitor, single point]
Cc1c(C)c(C)c(S(=O)(=O)Nc2ccc3[nH]c(=O)[nH]c3c2)c(C)c1C |  | inconclusive [inhibitor, full curve]
CC(C)(C)NC(=O)C(c1ccc(C#N)cc1)n1c(=O)c(-c2ccccc2)nc2ccccc21 (stereo not given) |  | inconclusive [inhibitor, single point]
O=C(NCc1ccco1)NC1CCCCC1 | inactive: 2.6% | 
Cc1ccc2nc(-c3ccncc3)c(Nc3ccccc3C)n2c1 |  | inconclusive [inhibitor, single point]
Cc1ccc(NC(=O)CCc2nc3sc4c(c3c(=O)[nH]2)CCCC4)nc1 | inactive: 2.96% | 
CC1=C(c2ccc(C)cc2)S(=O)(=O)N=C1N1CCN(c2ccccc2)CC1 | inactive: -12.1% | 
Cc1nn(-c2ccccc2)c(Cl)c1/C=N/Nc1nnc(C)c(=O)[nH]1 |  | inconclusive [inhibitor, single point]
Cc1cc(C)nc(Sc2c(C)nn(-c3ccccc3)c2C)n1 |  | inconclusive [inhibitor, single point]
CN(c1ccccc1)S(=O)(=O)c1cc(C(=O)N2CCN(c3ncccn3)CC2)ccc1Cl |  | inconclusive [inhibitor, single point]
COc1ccc(CNC2CCCc3ccccc32)cc1OC (stereo not given) |  | inconclusive [inhibitor, single point]

Structure (SMILES) | activity change, negative = growth inhibition | Potency
CC(C)(C)c1ccc(S(=O)(=O)Nc2ccc(C(O)(C(F)(F)F)C(F)(F)F)cc2)cc1 |  | active: 16.4 µM
Cc1cccc(-c2nc3c4ccccc4nc(NCc4ccccc4Cl)n3n2)c1 | inactive: 0.837% | 
Cc1ccc(C(NC(=O)Cc2cccs2)C(=O)Nc2ccc(C(C)C)cc2)cc1 (stereo not given) |  | active: 16.4 µM
CN(Cc1ccccc1)S(=O)(=O)c1ccc(F)c(C(=O)Nc2ccccc2C(F)(F)F)c1 |  | inconclusive [inhibitor, single point]
COc1ccc(CC(=O)NC(C)CCc2ccccc2)cc1OC (stereo not given) | inactive: -17.8% | 
COc1cccc(C2CC(c3ccccc3)=NN2S(=O)(=O)c2ccccc2)c1OC (stereo not given) |  | inconclusive [inhibitor, single point]
Cc1ccc(NS(=O)(=O)c2ccc3c4c(cccc24)C(=O)N3)c(C)c1 |  | inconclusive [inhibitor, single point]
CCn1cc(C(=O)NCc2ccccc2)c(=O)c2cc(S(=O)(=O)N3CCCCC3)ccc21 |  | inconclusive [inhibitor, partial curve, poor fit]
NCCNC(=O)c1c(NC(=O)c2ccccc2)sc2c1CCCC2 |  | inconclusive [inhibitor, single point]
O=C(CSc1nnc(N2CCCC2)n1-c1cccc(Cl)c1)N1CCN(c2ccccn2)CC1 |  | inconclusive [inhibitor, single point]
Cc1ccc(NC(=O)N2CCCC(c3nc(-c4ccc(F)cc4)no3)C2)cc1 (stereo not given) |  | active: 23.1 µM
CCCCn1nc(C(=O)Nc2ccc3c(c2)OCCO3)c2ccccc2c1=O |  | inconclusive [inhibitor, partial curve]
O=C(Nc1ccc(OC(F)F)cc1)c1nc(SCc2ccccc2F)ncc1Cl |  | inconclusive [inhibitor, single point]
CC(C)(C)OC(=O)N1C(=O)[C@](OC(=O)c2ccccc2)(c2ccccc2)c2cccc(F)c21 |  | inconclusive [inhibitor, partial curve]
Cc1cccc(-c2nc(CS(=O)CC(=O)N3CC(C)CC(C)C3)c(C)o2)c1 (stereo not given) | inactive: -20% | 
CNS(=O)(=O)c1cn(CC(=O)N2CCN(c3ccc(OC)cc3)CC2)cc1S(=O)(=O)NC | inactive: -21% | 
CCN1CCCC1CN(Cc1cc2cc(C)ccc2[nH]c1=O)C(=O)Nc1ccccc1OC (stereo not given) |  | inconclusive [inhibitor, partial curve]
Cc1ccc(N)c2c1OCCC2=O | inactive: -5.36% | 
Cc1cccc(OCc2nc3ccccc3n2C)c1 |  | inconclusive [inhibitor, single point]
COc1ccc(CC(=O)NC2CC(=O)N(c3ccc4c(c3)OCCO4)C2)cc1 (stereo not given) | inactive: -4.1% | 
COc1ccccc1C1CCN(Cc2cccc([N+](=O)[O-])c2)CC1 |  | inconclusive [inhibitor, single point]
COc1ccc(NC(=O)CN(C)C(=O)c2cccc(S(=O)(=O)Nc3ccccc3Cl)c2)cc1 | inactive: -11.4% | 
